The whole screen tested about 360,000 compounds, of which about 25,000 (6.9%) were called active. Inconclusive means that the source gave no clear call. Such entries were picked first, then a sample of the others. Calls come from the whole dose curve; as a rule, active = well fitted inhibition curve with a large enough effect; inconclusive = small, poorly fitted or top-dose-only effect; inactive = flat fitted curve, though single readings scatter. Potencies of inconclusive entries are doubtful fits and often do not repeat.
What follows are compounds tested against Luciferin 4-monooxygenase (Photinus pyralis) (UniProt P08659) (assay: qHTS profiling assay for firefly luciferase inhibitor/activator using purifed enzyme and Km concentrations of substrates (counterscreen for miR-21 project)). Settings: purified FLuc, luminescence inhibition; series mostly up to 57.5 µM.
How it was run: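 Purified P. pyralis luciferase (10nM final) with 10uM D-luciferin and 10uM ATP (Km levels) in 50mM Tris acetate pH 7.5, 10mM Mg acetate, 0.01% Tween-20, 0.05% BSA; qHTS 6-point titration, ~60 µM downward; luminescence read.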
Note: nearly all actives have a fitted effect of over 55% in size.
Potency is the fitted concentration of half-maximal effect; tags give direction and shape of the fitted curve.

Chain of UniProt P08659 (P08659 whole entry, looked up): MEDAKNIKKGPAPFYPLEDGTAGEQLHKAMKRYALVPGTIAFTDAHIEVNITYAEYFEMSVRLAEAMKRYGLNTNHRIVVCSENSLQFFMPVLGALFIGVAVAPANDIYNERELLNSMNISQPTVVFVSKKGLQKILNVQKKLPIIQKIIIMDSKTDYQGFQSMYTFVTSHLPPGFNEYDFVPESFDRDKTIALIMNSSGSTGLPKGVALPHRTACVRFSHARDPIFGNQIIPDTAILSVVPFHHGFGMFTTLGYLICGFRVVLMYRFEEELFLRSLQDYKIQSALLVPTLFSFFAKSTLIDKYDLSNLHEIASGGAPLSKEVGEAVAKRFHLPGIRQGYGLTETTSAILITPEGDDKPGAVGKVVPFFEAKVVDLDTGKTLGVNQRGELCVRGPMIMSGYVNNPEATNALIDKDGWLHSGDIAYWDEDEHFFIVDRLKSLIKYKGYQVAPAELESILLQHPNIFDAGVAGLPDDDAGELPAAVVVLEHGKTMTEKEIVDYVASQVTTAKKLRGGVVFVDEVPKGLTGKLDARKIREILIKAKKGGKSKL

Row | SMILES | Potency
1 | CC(=O)Nc1ccc(S(=O)(=O)Nc2nc3ccccc3nc2Nc2ccccc2)cc1 | inconclusive: 26.9 µM [inhibitor, single point]
2 | CCCn1c(Nc2nc3ccccc3n2C)nc2ccccc21 | inconclusive: 23.9 µM [inhibitor, single point]
3 | CC(C)(C)S(=O)(=O)Cc1nc(-c2ccc(Cl)c(Cl)c2)cs1 | inconclusive: 19 µM [inhibitor, partial curve]
4 | COc1ccc(C(=O)Nc2ccnn2C2CCN(C(C)CSC)CC2)cc1 (stereo not given) | inactive
5 | Cn1c(=O)c2c(nc(SCCCC#N)n2Cc2c(F)cccc2Cl)n(C)c1=O | inactive
6 | COc1ccc(-c2noc(N3CCCC(C(=O)Nc4cc(F)ccc4F)C3)n2)cc1 (stereo not given) | inconclusive: 10.7 µM [inhibitor, partial curve]
7 | Cc1cccc(NC(=O)CSc2nc3ccc(NC(=O)c4cccs4)cc3s2)c1 | inconclusive: 9.53 µM [inhibitor, partial curve]
8 | COc1ccc(OCC(=O)Nc2cc(-c3cccc(Cl)c3)nn2-c2ccccc2)cc1 | inconclusive: 37.9 µM [inhibitor, single point]
9 | CCCN1C(=O)c2cccc3c(N4CCCCC4)ccc(c23)C1=O | active: 10.7 µM
10 | O=C(Nc1ccc2c(c1)CCC2)c1cnccn1 | active: 12 µM
11 | CCc1ccc(Nc2cc(C)nc3nc(Cc4ccc(Cl)cc4)nn23)cc1 | inactive
12 | CCOC(=O)c1c(C)oc2ncnc(NCCc3ccccc3)c12 | inactive
13 | Brc1cc(Br)c2nc(-c3cccs3)ccc2c1 | active: 9.53 µM
14 | O=C(NCCOc1ccccc1)C1CCCCC1 | inconclusive: 26.9 µM [inhibitor, partial curve]
15 | Clc1c2c(nc3ccccc13)CCC2 | inconclusive: 37.9 µM [inhibitor, single point]
16 | CC(C)Cn1c(N)c(C(=O)COC(=O)CC23CC4CC(CC(C4)C2)C3)c(=O)n(C)c1=O | inconclusive: 37.9 µM [inhibitor, partial curve, poor fit]
17 | Cc1nc2sc(-c3ccccc3)nn2c(=O)c1Br | active: 8.49 µM
18 | CCCN1CCN(CCNC(=O)Nc2cc(OC)cc(OC)c2)CC1 | inactive
19 | Cc1ccc(OCCC(=O)N(Cc2ccccc2)c2c(N)n(Cc3ccccc3)c(=O)[nH]c2=O)cc1 | inactive
20 | COC(=O)c1ccc(CN(c2ccc(C(=O)O)c(O)c2)S(=O)(=O)c2ccc(Cl)c([N+](=O)[O-])c2)cc1 | inactive
21 | COCCNC(=O)c1noc2c1CCc1cc(OC)ccc1-2 | inconclusive: 23.9 µM [inhibitor, partial curve]
22 | CN1C(C(=O)Nc2ccc(OC(F)(F)F)cc2)=CC(c2ccc3c(c2)OCO3)=NS1(=O)=O | inconclusive: 26.9 µM [inhibitor, partial curve, poor fit]
23 | COc1ccc(C(=O)c2ccc(Cl)cc2Cl)cc1 | inconclusive: 19 µM [inhibitor, partial curve, poor fit]
24 | COc1cc(C)nc(NS(=O)(=O)c2ccccc2)n1 | inactive

Row | SMILES | Potency
25 | O=C1Nc2cc(Cl)c(Cl)cc2N(O)N1c1cc(Cl)cc(Cl)c1 | inconclusive: 37.9 µM [inhibitor, partial curve, poor fit]
26 | COc1ccc(OC)c(NC(=O)CSc2nc(-c3ccccc3)cc(=O)[nH]2)c1 | inconclusive: 30.1 µM [inhibitor, partial curve, poor fit]
27 | CC(=O)Nc1ccc(NC(=O)CSC2=NS(=O)(=O)c3ccccc3N2)cc1 | inconclusive: 33.8 µM [inhibitor, partial curve, poor fit]
28 | N/C(=N\OC(=O)CCC1CCCC1)c1ccc(Cl)cc1 | active: 21.3 µM
29 | CCOc1cc(C(=O)O/N=C(\N)c2ccccn2)cc(OCC)c1OCC | inconclusive: 16.9 µM [inhibitor, partial curve, poor fit]
30 | CC(C)(C)c1ccc2c(c1)OCC(C(=O)O)O2 (stereo not given) | inconclusive: 19 µM [inhibitor, partial curve]
31 | S=C(NN=C1CCCCCC1)Nc1ccc(Cl)cc1 | inconclusive: 26.9 µM [inhibitor, single point]
32 | COc1ccccc1/C=C/C=N/NC(=O)c1cnccn1 | inconclusive: 19 µM [inhibitor, partial curve]
33 | CCOC(=O)CCc1c(C)nc2c(c(C)nn2C(C)(C)C)c1C | inconclusive: 5.36 µM [inhibitor, full curve, poor fit]
34 | CCCOC(=O)/C(=C\C=C\c1ccccc1)NC(=O)c1ccccc1 | inconclusive: 37.9 µM [inhibitor, single point]
35 | Cc1nc2c(ccc3nc(NC(=O)Cc4ccccc4)sc32)s1 | active: 23.9 µM
36 | O=C(O)C/C(=C\c1ccc(Cl)cc1)c1nc2ccccc2o1 | inconclusive: 23.9 µM [inhibitor, partial curve, poor fit]
37 | C/C(=N\NS(=O)(=O)c1ccc(C)c([N+](=O)[O-])c1)c1cccs1 | inconclusive: 37.9 µM [inhibitor, partial curve, poor fit]
38 | O=C(Nc1cc(Cl)cc(Cl)c1)c1ccc(F)c(S(=O)(=O)N2CCCCCC2)c1 | inactive
39 | Cc1cc(C(=O)N/N=C/c2cc(N=Nc3ccccc3)ccc2O)n[nH]1 | inconclusive: 37.9 µM [inhibitor, partial curve, poor fit]
40 | CN(CCC1CCCCO1)C(=O)CCc1nnc(CCCCc2ccccc2)o1 (stereo not given) | inconclusive: 21.3 µM [inhibitor, partial curve, poor fit]
41 | Cc1ccc(-c2cc(C(=O)NCCc3ccccn3)c3ccccc3n2)c(C)c1 | inactive
42 | COc1ccc(CNC(=O)C2CCCN(S(=O)(=O)c3ccc4c(c3)CCCN4C(C)=O)C2)cc1 (stereo not given) | inactive
43 | CCOc1ccc2nc(N3CCCC(C(=O)Nc4ccc(Br)c(C)c4)C3)sc2c1 (stereo not given) | active: 6.01 µM
44 | CCOC(=O)c1ccc(-c2ccc(/C=N/NC(=O)Cc3nnc(N)s3)o2)cc1 | inconclusive: 4.78 µM [inhibitor, partial curve, poor fit]
45 | Cc1ccc(NC(=O)C2CCCN2S(=O)(=O)c2cccc3cccnc23)cc1 (stereo not given) | inactive
46 | COc1cccc(C2Oc3ccccc3C3CC(c4cccs4)=NN32)c1 (stereo not given) | inconclusive: 30.1 µM [inhibitor, partial curve, poor fit]
47 | CCOC(=O)Cc1csc(NC(=O)COc2c(C)cccc2C)n1 | inconclusive: 42.6 µM [inhibitor, partial curve, poor fit]
48 | COc1ccc(-c2nc3cc(NC(=O)c4ccc5c(c4)OCO5)ccc3o2)cc1 | inconclusive: 19 µM [inhibitor, partial curve, poor fit]

Row | SMILES | Potency
49 | Cc1c(C(=O)NNC(=S)Nc2ccc(S(N)(=O)=O)cc2)oc2ccccc12 | inconclusive: 37.9 µM [inhibitor, single point]
50 | O=C(Cn1cc(SCc2cccc(Cl)c2)c2ccccc21)N1CCOCC1 | active: 19 µM
51 | Cc1ccc(C(=O)CSc2nccn2-c2ccccc2)cc1 | inconclusive: 23.9 µM [inhibitor, single point]
52 | O=C(CC12CC3CC(CC(C3)C1)C2)NCC(=O)OCc1cc(=O)oc2ccc3ccccc3c12 | inconclusive: 6.01 µM [inhibitor, partial curve, poor fit]
53 | O=C(CSC(=S)N1CCOCC1)c1ccccc1 | active: 3.01 µM
54 | COc1cc(C(=O)NC2CC(=O)N(c3cccc(F)c3)C2)cc(OC)c1OC (stereo not given) | inactive
55 | Cc1cc(N2CCOCC2)n2cc(-c3ccccc3)nc2n1 | inconclusive: 37.9 µM [inhibitor, single point]
56 | COc1ccc(NC(=O)c2cccc(N3C(=O)C4CC=C(C)CC4C3=O)c2)c(OC)c1 (stereo not given) | inconclusive: 37.9 µM [inhibitor, partial curve, poor fit]
57 | O=C(c1ccc2c(c1)OCCO2)N(Cc1cccnc1)c1nc2ccc(F)cc2s1 | active: 16.9 µM
58 | CC(C)CC(=O)Nc1ccc(C(=O)COC(=O)C2CCC2)cc1 | active: 8.49 µM
59 | CC(=O)Nc1cccc(/C(C)=N/NS(=O)(=O)c2ccccc2)c1 | inactive
60 | COc1ccc(C(=O)Nc2nc3ccc(S(C)(=O)=O)cc3s2)cc1 | inconclusive: 4.26 µM [inhibitor, partial curve]
61 | CC(C)CN(C1CCS(=O)(=O)C1)S(=O)(=O)c1ccc(C(C)C)cc1 (stereo not given) | inactive
62 | Cc1cccc(Nc2nnc(SCC(=O)NC3CCCc4ccccc43)s2)c1C (stereo not given) | inconclusive: 37.9 µM [inhibitor, partial curve, poor fit]
63 | Cn1c(=O)c2ncn(CC(=O)Nc3ccc(N4CCOCC4)cc3)c2n(C)c1=O | inactive
64 | Cc1cnn(-c2cc(N/N=C/c3ccccc3)ncn2)c1 | inconclusive: 1.51 µM [inhibitor, full curve]
65 | O=C(NCC(O)COc1ccc([N+](=O)[O-])cc1)Nc1ccccc1 (stereo not given) | inconclusive: 37.9 µM [inhibitor, partial curve, poor fit]
66 | N#Cc1cc2c(nc1SCc1ccccc1)CCC2 | inactive
67 | COc1cccc(Nc2nc3ccccc3n3cnnc23)c1 | inconclusive: 30.1 µM [inhibitor, single point]
68 | COc1cc([N+](=O)[O-])c(OC)cc1SCc1n[nH]c(=S)n1-c1ccc(F)cc1 | inconclusive: 37.9 µM [inhibitor, partial curve, poor fit]
69 | CCOC(=O)c1c(N)sc2c(NC(C)=O)cccc12 | inconclusive: 37.9 µM [inhibitor, partial curve, poor fit]
70 | C=COCCCNc1ncnc2sc(-c3ccccc3)cc12 | inconclusive: 37.9 µM [inhibitor, single point]

From PubChem BioAssay AID588342 (National Center for Advancing Translational Sciences (NCATS), 2011)
